# Screen size: about 310,000 compounds; about 14,000 (4.5%) showed an effect of 50% or more. Effects have a minus sign here. The list shows a part of the results.
# Target: human ether-à-go-go-related gene (hERG) potassium channel (human, UniProt Q12809)
# Assay: primary screen, population patch clamp on CHO cells stably expressing hERG
# 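Also: peak tail current of the secondary pulse compared with the same well before compound.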
# Sequence of human ether-à-go-go-related gene (hERG) potassium channel (Q12809 whole entry, looked up): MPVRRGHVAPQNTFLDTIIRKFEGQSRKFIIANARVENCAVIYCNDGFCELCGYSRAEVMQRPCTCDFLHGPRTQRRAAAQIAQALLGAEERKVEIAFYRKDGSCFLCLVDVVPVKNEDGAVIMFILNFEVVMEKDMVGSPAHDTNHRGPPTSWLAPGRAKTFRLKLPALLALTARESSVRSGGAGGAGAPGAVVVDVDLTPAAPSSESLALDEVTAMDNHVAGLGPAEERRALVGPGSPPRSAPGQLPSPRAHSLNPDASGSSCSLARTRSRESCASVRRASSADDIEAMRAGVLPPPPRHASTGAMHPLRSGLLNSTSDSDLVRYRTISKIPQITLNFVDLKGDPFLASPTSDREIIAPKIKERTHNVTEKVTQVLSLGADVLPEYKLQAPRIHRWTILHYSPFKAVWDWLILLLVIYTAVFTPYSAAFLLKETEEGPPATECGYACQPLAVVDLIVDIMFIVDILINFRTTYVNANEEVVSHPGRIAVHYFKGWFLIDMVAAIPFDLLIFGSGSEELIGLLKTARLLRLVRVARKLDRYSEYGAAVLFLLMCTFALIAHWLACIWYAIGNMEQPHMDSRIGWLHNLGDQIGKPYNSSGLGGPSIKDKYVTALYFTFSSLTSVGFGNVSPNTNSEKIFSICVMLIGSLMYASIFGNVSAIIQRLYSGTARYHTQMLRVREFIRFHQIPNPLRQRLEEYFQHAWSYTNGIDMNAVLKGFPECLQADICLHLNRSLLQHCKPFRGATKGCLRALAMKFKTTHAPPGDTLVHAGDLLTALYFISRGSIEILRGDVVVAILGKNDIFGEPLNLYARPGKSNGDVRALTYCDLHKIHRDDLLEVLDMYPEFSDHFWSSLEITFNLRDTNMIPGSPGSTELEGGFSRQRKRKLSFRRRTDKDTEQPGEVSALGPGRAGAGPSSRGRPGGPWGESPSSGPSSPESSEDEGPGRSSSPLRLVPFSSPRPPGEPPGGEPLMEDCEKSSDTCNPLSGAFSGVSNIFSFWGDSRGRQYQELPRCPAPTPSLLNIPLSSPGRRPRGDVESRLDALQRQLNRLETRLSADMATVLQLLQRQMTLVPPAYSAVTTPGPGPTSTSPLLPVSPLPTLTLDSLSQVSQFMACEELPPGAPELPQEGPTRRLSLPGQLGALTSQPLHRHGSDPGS
row,Structure (SMILES),"hERG current change (%, negative = inhibition) at 10uM [%]"
1,CC1=NN(c2ccc(S(=O)(=O)O)cc2C)C(=O)C1,35
2,COc1ccccc1OCC(=O)Nc1ccc(S(=O)(=O)N2CCCCCC2)cc1,-6.81
3,COCCn1c(SCC(=O)N2CCCc3ccccc32)nc2ccccc2c1=O,-72.6
4,N#CCCn1cc(C(CC(=O)c2ccc(Br)cc2)C(=O)O)c2ccccc21 (stereo not shown),3.11
5,COC(=O)c1ccc(Sc2ccccc2NS(=O)(=O)c2ccc(NC(C)=O)cc2)nc1,-9.89
6,COc1cc(S(=O)(=O)N(Cc2cccs2)CC2CCCO2)ccc1-n1cnnn1 (stereo not shown),-29
7,Cc1ccc(S(=O)(=O)NCC2(c3ccccc3)CCOCC2)cc1,16.1
8,CCCCC(CC)C(=O)Oc1ccc(O)c(C(C)(C)C)c1 (stereo not shown),14.9
9,COc1cc(/C=C/c2onc(C)c2[N+](=O)[O-])cc(OC)c1OC,11.2
10,CC(=O)c1ccc(OCC(O)CN2CCN(Cc3ccc4c(c3)OCO4)CC2)cc1.Cl (stereo not shown),-49.8
11,O=C(O)CN1C(=O)/C(=C/c2ccccc2Br)Oc2ccccc21,4.16
12,CCN(CC)S(=O)(=O)c1cc(C(=O)Nc2cc(Cl)ccc2N2CCN(C)CC2)ccc1Cl,-53.5
13,Cc1cc(OC(C)C(=O)N2C[C@H]3C[C@@H](C2)c2cccc(=O)n2C3)c2c(C)c(C)c(=O)oc2c1 (stereo partly shown),-0.917
14,CCn1cc(C2=NOC(C(=O)Nc3ccccc3C(=O)OC)C2)c(C)n1 (stereo not shown),-3.86
15,COC(=O)/N=C/c1c(NCc2ccccc2)nc2c(C)cccn2c1=O,-13.2
16,COc1ccc(C(=O)OC(C)C(=O)NC(C)CCc2ccccc2)c(OC)c1 (stereo not shown),-6.18
17,Cc1cccc(C)c1NC(=O)CN1CCNCC1,-0.377
18,COc1ccc(OC)c2c(C)cc(N3CCN(C(=O)c4ccc(C)cc4)CC3)nc12,-8.22
19,O=[N+]([O-])c1ccc(/C=N/Nc2nc(N3CCCCCC3)nc(N3CCCCCC3)n2)o1,4.65
20,COc1ccc(C(=O)Nc2ccc(C(=O)N3CCOCC3)cc2)cc1OC,11.6
21,Cn1nnnc1SCC(=O)Nc1ccc(Oc2ccc(Cl)cc2)cc1,6.99
22,CCOc1ccc(OCC)c(NC(=O)C2CCCN(S(=O)(=O)c3c(C)n[nH]c3C)C2)c1 (stereo not shown),8.8

row,Structure (SMILES),"hERG current change (%, negative = inhibition) at 10uM [%]"
1,Nn1c(SCC(=O)Nc2ccc(S(N)(=O)=O)cc2)nnc1C(F)(F)F,0.037
2,CCCCC/C=C\C/C=C\C/C=C\C/C=C\CCCC(=O)O,14.4
3,CCc1cccc(NS(=O)(=O)c2ccc3c(c2)n(C)c(=O)n3C)c1,24.5
4,COc1ccc(NS(=O)(=O)c2ccc(NC(=O)c3ccccc3Br)cc2)nn1,25.8
5,CCOC(=O)N1CCN(C(=O)C2c3cc(OC)c(OC)cc3C(=O)N3CCc4ccccc4C23)CC1 (stereo not shown),-1.86
6,CC(NC(=O)C1CCCCC1)C(c1cccs1)N1CCN(C)CC1 (stereo not shown),-3.65
7,CCOc1ccccc1NC(=O)CSc1nncc2ccccc12,-24.3
8,Cc1nc2ccccc2c(=O)n1/N=C/c1ccccc1Cl,12.8
9,COc1ccc(NC(=O)c2ccccc2-c2ccccc2C(=O)O)cc1,11.1
10,COc1cccc(N2CC(C(=O)Nc3nnc(SCC(=O)c4ccccc4)s3)CC2=O)c1 (stereo not shown),-1.18
11,O=C(NCN1CCc2ccccc2C1)c1ccccc1,-10.7
12,Cc1ccc2nc(SCC(=O)NCc3ccccc3)nc(=O)n2c1,2.24
13,COc1ccc(N(C(=O)c2snc(C(N)=O)c2N)C(C(=O)NC2CCCC2)c2ccc(F)cc2)c(OC)c1 (stereo not shown),22.9
14,COc1ccc(OC)c(NC(=O)C2CCCN(S(=O)(=O)c3c(C)nn(C)c3C)C2)c1 (stereo not shown),10.8
15,CCOc1ccc(NC(=O)CN(C)C(=O)C2CC(=O)N(c3ccc4c(c3)OCCO4)C2)cc1OCC (stereo not shown),-22.3
16,COc1ccc(CNC(=O)C2CC(c3ccccc3C(F)(F)F)=NO2)cc1 (stereo not shown),-10
17,CCOC(=O)CC(NC(C)=O)c1ccc([N+](=O)[O-])cc1 (stereo not shown),-1.79
18,CN(C)C(=O)N1CCN(C(=O)c2ccco2)CC1,2.88
19,Cc1c(O)ccc(NC(=O)/C=C/c2ccccc2)c1C,17.6
20,Cc1cc(C)nc(Sc2ccc(C=O)cc2[N+](=O)[O-])n1,6.95
21,O=C1C2Sc3[nH]c(=O)sc3C(c3ccccc3)C2C(=O)N1c1ccc(Cl)cc1 (stereo not shown),-11.1

# Source: paper PMC4336329 (PLoS ONE, 2015)
